Measured values from patent publication US20240309004A1, “SELECTIVE CYCLIN-DEPENDENT KINASE INHIBITORS AND METHODS OF THERAPEUTIC USE THEREOF” (ViroKyne Therapeutics, LLC, priority 2021, published 2024).
pEC50, pIC50: −log10 of the molar value. Read-outs that look alike come from different tables or passages of the source.

Columns and labels:
[1] = test system: HCMV strain AD169; test: HCMV primary assay (CPE), strain AD169, HFF cells; format: cell-based, Human Cytomegalovirus
Description: The antiviral activity of the compound against HCMV in the described Primary assay was measured by treating primary Human foreskin fibroblast (HFF) cells infected with HCMV with a range of compound concentrations—description of methods for this assay can be found in section 1.3.2.1. […] . Additional tested assay parameters in this Primary assay can be found in Table 3.2.1 and include EC90, S150, and S190 values—descriptions of those data points can be found in section 3.2.1.

[2] = Cytotoxicity concurrent with HCMV AD169 primary assay; format: cell-based, human; details: human, CC50
[3] = test system: HCMV strain AD169; test: HCMV secondary assay (yield reduction), strain AD169, HFF cells; format: cell-based, Human Cytomegalovirus; details: Human betaherpesvirus 5, virus strain AD169, HFF cells
Description: (§1) Monolayers of HFF cells were prepared in 96-well plates and incubated at 37° C. for 1 d to allow the cells to reach confluency. Media was then aspirated from the wells and cells infected at a high MOI. At 1 h following infection, the inocula were removed and the monolayers rinsed with fresh media. […] Drug dilutions were added to the wells and the plates were incubated for various times, depending on the virus used and represents a single replication cycle for the virus. A duplicate set of dilutions were also performed but remained uninfected to serve as a cytotoxicity control and received equal compound exposure. Supernatants from each of the infected wells were subsequently titered using CTG in a TCID50 assay to quantify the progeny virus. For HCMV only, viral yield in the supernatants from the infected cells were titered using qPCR with HCMV primers [NT], and probe [NT].

[4] = Cytotoxicity concurrent with HCMV secondary assay; format: cell-based; details: human, HFF cells
Description: as §1

[5] = in vitro; format: cell-based; details: guinea pig
[6] = Cytotoxicity concurrent with Guinea pig CMV secondary assay; format: cell-based; details: GP lung cells
[7] = test system: Epstein-Barr virus Akata strain; test: Epstein-Barr primary assay, Akata strain, Akata cells; format: cell-based
[8] = Cytotoxicity concurrent with HPV11 primary assay; format: cell-based; details: human, C-33 A cells
Excerpt: An HPV11 replicon assay was developed and expresses the essential E1 and E2 proteins from the native promoter. The E2 origin binding protein interacts with the virus origin of replication and recruits the E1 replicative helicase which unwinds the DNA and helps to recruit the cellular DNA replication machinery (including DNA polymerases, type I and type II topoisomerases, DNA ligase, single-stranded DNA binding proteins, proliferating cell nuclear antigen). The replication complex then drives the amplification of the replicon which can be assessed by the expression of a destabilized NanoLuc reporter gene carried on the replicon. In this assay, the replicon (pMP619) is transfected into C-33 A cells grown as monolayers in 384-well plates. At 48 h post transfection, the enzymatic activity of the destabilized NanoLuc reporter is assessed with NanoGlo reagent. […] . Beadle et al., 2016.

[9] = test system: Human herpes virus 6B strain Z29; test: Human herpes virus 6B primary assay, strain Z29, MOLT-3 cells; format: cell-based, Human Herpesvirus 6B; details: Human betaherpesvirus 6B
[10] = Cytotoxicity concurrent with HHV-6B primary assay; format: cell-based; details: human
[11] = test system: Human herpes virus 8 strain BCBL-1; test: Human herpes virus 8 primary assay, BCBL-1 cells; format: cell-based, Human Herpesvirus 8; details: Human gammaherpesvirus 8, BCBL1, strain BCBL-1, BCBL-1 cells
[12] = Cytotoxicity concurrent with HHV-8 primary assay; format: cell-based; details: human
[13] = Cytotoxicity concurrent with EBV primary assay; details: human
[14] = test system: HFF cells; test: Cytotoxicity concurrent with HCMV AD169 primary assay; format: cell-based, human
[15] = test system: VZV strain Ellen; test: VZV primary assay, strain Ellen, HFF cells; format: cell-based, Varicella Zoster Virus; details: cell line HFF
Description: (§2) Assays were performed in monolayers as described. […] Toxicity was measured using CTG as above. […] Toxicity was measured using CTG as above.
(§3) Monolayers of HFF cells were prepared in six-well plates and incubated at 37° C. for 2 d to allow the cells to reach confluency. Media was then aspirated from the wells and 0.2 mL of virus-containing solution was added to each of three wells to yield 20-30 plaques in each well. The virus was allowed to adsorb to the cells for 1 h and the plates were agitated every 15 minutes. Compounds were diluted in assay media consisting of MEM with Earl's salts supplemented with 2% FBS, glutamine, penicillin, and gentamycin. Diluted drug was added to duplicate wells and the plates were incubated for various times, depending on the virus used. For HSV-1 and -2, the monolayers were then stained with 1% crystal violet in 20% methanol and the unbound dye removed by washing with dH20. For all other assays, the cell monolayer was stained with 1% Neutral Red solution for 4-6 h then the stain was aspirated and the cells were washed with PBS.

[16] = test system: HFF cells; test: Cytotoxicity concurrent with VZV Ellen primary assay; format: cell-based, human
Description: as §2

[17] = test system: HSV1 strain E-377; test: HSV1 primary assay, strain E-377, HFF cells; format: cell-based, Herpes Simplex Virus 1
Description: as §2, §3

[18] = test system: HFF cells; test: Cytotoxicity concurrent with HSV1 E-377 primary assay; format: cell-based, human
Description: as §2

[19] = test system: HSV2 strain G; test: HSV2 primary assay, strain G, HFF cells; format: cell-based, herpes simplex virus 2
Description: as §2, §3

[20] = test system: HFF cells; test: Cytotoxicity concurrent with HSV2 primary assay; format: cell-based, human
Description: as §2

[21] = test system: Adenovirus Adenoid75 strain; test: Adenovirus primary assay, Adenoid75 strain, HFF cells; format: cell-based
[22] = test system: HFF cells; test: Cytotoxicity concurrent with Adenovirus primary assay; format: cell-based, human; details: Adenovirus primary assay, HFF cells
[23] = test system: Akata cells
[24] = biological target: CDK7/cyclin H (Homo sapiens (Human), UniProt P50613); test: Kinase activity assay, CDK7/cyclin H; format: biochemical; details: 10 μM ATP, 3-fold serial dilution starting at 10 μM, read-out: Compound IC50 CDK7/cyclin H
[25] = biological target: CDK9/cyclin T1 (Homo sapiens (Human), UniProt P50750); test: Kinase activity assay, CDK9/cyclin T1; format: biochemical; details: Table 3.1.1; 10 μM ATP; 10-dose duplicate, 3-fold serial dilution starting at 10 μM; read-out: Compound IC50 CDK9/cyclin T1
[26] = test system: Murine CMV strain Smith; test: Murine CMV primary assay, strain Smith, MEF cells; format: cell-based, Mouse Cytomegalovirus
[27] = Human betaherpesvirus 5, virus strain AD169, HFF cells
[28] = Molt-3 cells without virus addition
[29] = BCBL-1 cells without virus induction
[30] = Akata cells without virus induction

UniProt P50750, sequence (P50750 whole entry): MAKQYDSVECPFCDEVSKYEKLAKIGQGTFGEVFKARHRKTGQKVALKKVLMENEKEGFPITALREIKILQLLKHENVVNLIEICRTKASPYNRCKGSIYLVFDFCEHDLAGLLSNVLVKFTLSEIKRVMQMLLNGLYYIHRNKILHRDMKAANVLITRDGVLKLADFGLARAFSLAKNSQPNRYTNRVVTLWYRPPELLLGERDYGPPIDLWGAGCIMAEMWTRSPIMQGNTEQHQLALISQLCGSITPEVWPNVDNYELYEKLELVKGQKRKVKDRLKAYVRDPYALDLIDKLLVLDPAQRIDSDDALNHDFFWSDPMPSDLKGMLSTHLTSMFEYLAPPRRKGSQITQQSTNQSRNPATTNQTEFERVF
UniProt P50750, sequence (O60563 whole entry partner): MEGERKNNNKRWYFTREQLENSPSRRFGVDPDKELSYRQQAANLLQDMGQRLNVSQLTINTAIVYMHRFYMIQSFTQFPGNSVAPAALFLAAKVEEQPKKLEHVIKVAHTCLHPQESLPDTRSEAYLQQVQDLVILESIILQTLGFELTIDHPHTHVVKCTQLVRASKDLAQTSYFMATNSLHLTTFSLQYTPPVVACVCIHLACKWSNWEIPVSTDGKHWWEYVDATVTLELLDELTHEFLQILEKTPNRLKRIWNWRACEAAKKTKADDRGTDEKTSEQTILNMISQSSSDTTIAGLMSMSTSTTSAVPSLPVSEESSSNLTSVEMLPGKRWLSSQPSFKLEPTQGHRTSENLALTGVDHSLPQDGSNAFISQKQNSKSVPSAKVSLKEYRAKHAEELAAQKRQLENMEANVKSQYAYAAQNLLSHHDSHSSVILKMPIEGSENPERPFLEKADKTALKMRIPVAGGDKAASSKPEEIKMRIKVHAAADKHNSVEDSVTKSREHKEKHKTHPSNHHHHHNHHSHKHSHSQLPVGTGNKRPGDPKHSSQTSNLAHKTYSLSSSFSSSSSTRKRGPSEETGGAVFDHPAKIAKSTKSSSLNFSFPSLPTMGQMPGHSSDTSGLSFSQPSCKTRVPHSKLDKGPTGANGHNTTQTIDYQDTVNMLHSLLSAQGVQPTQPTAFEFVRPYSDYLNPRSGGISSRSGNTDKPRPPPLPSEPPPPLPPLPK
UniProt P50613, sequence (P50613 whole entry): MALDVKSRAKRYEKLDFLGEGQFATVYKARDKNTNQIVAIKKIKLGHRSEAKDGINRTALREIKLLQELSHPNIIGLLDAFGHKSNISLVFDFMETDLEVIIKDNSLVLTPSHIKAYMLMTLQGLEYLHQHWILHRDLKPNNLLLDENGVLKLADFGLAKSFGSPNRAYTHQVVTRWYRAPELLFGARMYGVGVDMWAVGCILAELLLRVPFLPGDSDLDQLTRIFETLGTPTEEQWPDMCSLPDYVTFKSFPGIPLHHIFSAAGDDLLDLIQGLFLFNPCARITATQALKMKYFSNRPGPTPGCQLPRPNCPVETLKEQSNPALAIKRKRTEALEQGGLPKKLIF
UniProt P50613, sequence (P51946 whole entry partner): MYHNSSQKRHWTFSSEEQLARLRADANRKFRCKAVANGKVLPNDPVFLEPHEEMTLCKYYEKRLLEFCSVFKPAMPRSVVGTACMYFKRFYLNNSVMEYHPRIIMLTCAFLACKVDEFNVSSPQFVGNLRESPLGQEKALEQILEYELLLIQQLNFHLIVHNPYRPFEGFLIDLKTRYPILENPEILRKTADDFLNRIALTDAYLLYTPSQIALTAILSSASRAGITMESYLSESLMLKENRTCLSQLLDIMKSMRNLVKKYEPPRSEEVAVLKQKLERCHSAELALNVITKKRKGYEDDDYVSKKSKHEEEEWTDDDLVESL

Q: With NC(=O)CN1CCC(Nc2cc3c4ccc(F)cc4nn3cn2)CC1 [VKT-026] as the compound, how does the pEC50 [1, 27] read?
A: Its pEC50 is 5.83.

Q: And the EC90 [1, 27]?
A: Its EC90 is 10 µM.

Q: What about the CC50 [2] of the same compound?
A: The CC50 was 26.8 µM.

Q: And the EC90 [3]?
A: Its EC90 is 9.87 µM.

Q: And the CC50 [4]?
A: Its CC50 is 27.2 µM.

Q: What about the CC50 at 7 d [5] of the same compound?
A: Its CC50 at 7 d is 50 µM.

Q: And the CC50 [6]?
A: Its CC50 is 50 µM.

Q: What about the pEC50 ([7]; human gammaherpesvirus 4) of the same compound?
A: Its pEC50 is 5.00.

Q: What about the EC90 ([7]; human gammaherpesvirus 4) of the same compound?
A: Its EC90 is 10 µM.

Q: What about the CC50 [8] of the same compound?
A: Its CC50 is 50 µM.

Q: What about the pEC50 [9] of the same compound?
A: The pEC50 was 5.00.

Q: What about the EC90 [9] of the same compound?
A: Its EC90 is 10 µM.

Q: And the CC50 at 7 d ([10]; MOLT-3 cells)?
A: Its CC50 at 7 d is 48.6 µM.

Q: And the pEC50 [11]?
A: The pEC50 was 5.00.

Q: What about the EC90 [11] of the same compound?
A: Its EC90 is 10 µM.

Q: And the CC50 ([12]; BCBL-1 cells)?
A: Its CC50 is 42.4 µM.

Q: What about the CC50 at 72 h ([13]; Akata cells) of the same compound?
A: The CC50 at 72 h was 42.9 µM.

Q: With CC(C)(C)OC(=O)N[C@@H]1CC[C@H](Nc2cc3c4ccc(F)cc4nn3cn2)C1 [VKT-033] as the compound, how does the pEC50 ([1]; virus strain AD169, HFF cells) read?
A: Its pEC50 is 5.70.

Q: What about the EC90 ([1]; virus strain AD169, HFF cells) of the same compound?
A: The EC90 was 2 µM.

Q: What about the CC50 [14] of the same compound?
A: The CC50 was 7.94 µM.

Q: And the pEC50 [15]?
A: The pEC50 was 5.00.

Q: And the EC90 [15]?
A: Its EC90 is 10 µM.

Q: What about the CC50 [16] of the same compound?
A: The CC50 was 15.4 µM.

Q: What about the pEC50 [17] of the same compound?
A: The pEC50 was 5.00.

Q: What about the EC90 [17] of the same compound?
A: Its EC90 is 10 µM.

Q: What about the CC50 [18] of the same compound?
A: The CC50 was 20.5 µM.

Q: And the pEC50 [19]?
A: Its pEC50 is 5.00.

Q: What about the EC90 [19] of the same compound?
A: The EC90 was 10 µM.

Q: What about the CC50 [20] of the same compound?
A: The CC50 was 21.8 µM.

Q: And the pEC50 [7]?
A: The pEC50 was 5.03.

Q: And the EC90 [7]?
A: The EC90 was 10 µM.

Q: And the pEC50 [21]?
A: Its pEC50 is 5.00.

Q: What about the EC90 [21] of the same compound?
A: Its EC90 is 10 µM.

Q: What about the CC50 [22] of the same compound?
A: Its CC50 is 28.2 µM.

Q: What about the CC50 [23] of the same compound?
A: The CC50 was 38 µM.

Q: With N[C@@H]1CC[C@H](Nc2cc3c4ccc(F)cc4nn3cn2)C1 [VKT-034] as the compound, how does the pIC50 [24] read?
A: The pIC50 was 5.60.

Q: And the pIC50 [25]?
A: Its pIC50 is 7.09.

Q: What about the pEC50 [1, 27] of the same compound?
A: The pEC50 was 5.00.

Q: And the EC90 [1, 27]?
A: The EC90 was 10 µM.

Q: And the CC50 [2]?
A: The CC50 was 19.5 µM.

Q: What about the EC90 [3] of the same compound?
A: The EC90 was 9.67 µM.

Q: What about the CC50 ([4]; uninfected HFF cell monolayers) of the same compound?
A: Its CC50 is 27.2 µM.

Q: What about the pEC50 [26] of the same compound?
A: The pEC50 was 5.00.

Q: What about the EC90 [26] of the same compound?
A: Its EC90 is 10 µM.

Q: And the CC50 at 7 d [5]?
A: Its CC50 at 7 d is 25 µM.

Q: And the CC50 [6]?
A: The CC50 was 50 µM.

Q: What about the pEC50 ([7]; human gammaherpesvirus 4) of the same compound?
A: The pEC50 was 5.97.

Q: And the EC90 ([7]; human gammaherpesvirus 4)?
A: Its EC90 is 2.91 µM.

Q: And the CC50 ([8]; C-33 A cell monolayers)?
A: The CC50 was 29.2 µM.

Q: What about the pEC50 [9] of the same compound?
A: The pEC50 was 5.06.

Q: What about the EC90 [9] of the same compound?
A: Its EC90 is 10 µM.

Q: And the CC50 at 7 d [10, 28]?
A: Its CC50 at 7 d is 32.8 µM.

Q: And the pEC50 [11]?
A: The pEC50 was 5.00.

Q: And the EC90 [11]?
A: Its EC90 is 10 µM.

Q: What about the CC50 [12, 29] of the same compound?
A: The CC50 was 31.6 µM.

Q: What about the CC50 at 72 h [13, 30] of the same compound?
A: Its CC50 at 72 h is 30.9 µM.

Q: With N[C@H]1CC[C@H](Nc2cc3c4ccc(F)cc4nn3cn2)C1 [VKT-036] as the compound, how does the pIC50 [24] read?
A: The pIC50 was 5.44.

Q: And the pIC50 [25]?
A: The pIC50 was 7.17.

Q: And the pEC50 [1, 27]?
A: The pEC50 was 5.00.

Q: What about the EC90 [1, 27] of the same compound?
A: The EC90 was 10 µM.

Q: And the CC50 [2]?
A: The CC50 was 16.5 µM.

Q: What about the EC90 [3] of the same compound?
A: The EC90 was 9.94 µM.

Q: What about the CC50 ([4]; uninfected HFF cell monolayers) of the same compound?
A: The CC50 was 34.1 µM.

Q: And the pEC50 [26]?
A: The pEC50 was 5.00.

Q: And the EC90 [26]?
A: The EC90 was 10 µM.

Q: And the CC50 at 7 d [5]?
A: Its CC50 at 7 d is 23.4 µM.

Q: And the CC50 [6]?
A: Its CC50 is 50 µM.

Q: What about the pEC50 ([7]; human gammaherpesvirus 4) of the same compound?
A: The pEC50 was 5.87.

Q: What about the EC90 ([7]; human gammaherpesvirus 4) of the same compound?
A: Its EC90 is 7.57 µM.

Q: What about the CC50 ([8]; C-33 A cell monolayers) of the same compound?
A: Its CC50 is 21.2 µM.

Q: What about the pEC50 [9] of the same compound?
A: The pEC50 was 5.23.

Q: And the EC90 [9]?
A: Its EC90 is 8.02 µM.

Q: What about the CC50 at 7 d [10, 28] of the same compound?
A: Its CC50 at 7 d is 28.1 µM.

Q: And the pEC50 [11]?
A: Its pEC50 is 5.24.

Q: What about the EC90 [11] of the same compound?
A: The EC90 was 8.86 µM.

Q: And the CC50 [12, 29]?
A: Its CC50 is 12.9 µM.

Q: And the CC50 at 72 h [13, 30]?
A: Its CC50 at 72 h is 12.6 µM.
